Data published in paper PMC6633398.
No constants are given. Whether binding was seen depends on the method and setting. Binding seen in cells or lysates may run through a third protein. Some entries that bind do so weakly or less than the wild type.

By UniProt entry, the sequences of proteins in these tests, tags left out. Where a name states a change or a piece, a line headed by the entry shows the natural chain unless it says otherwise.
UniProt O43681: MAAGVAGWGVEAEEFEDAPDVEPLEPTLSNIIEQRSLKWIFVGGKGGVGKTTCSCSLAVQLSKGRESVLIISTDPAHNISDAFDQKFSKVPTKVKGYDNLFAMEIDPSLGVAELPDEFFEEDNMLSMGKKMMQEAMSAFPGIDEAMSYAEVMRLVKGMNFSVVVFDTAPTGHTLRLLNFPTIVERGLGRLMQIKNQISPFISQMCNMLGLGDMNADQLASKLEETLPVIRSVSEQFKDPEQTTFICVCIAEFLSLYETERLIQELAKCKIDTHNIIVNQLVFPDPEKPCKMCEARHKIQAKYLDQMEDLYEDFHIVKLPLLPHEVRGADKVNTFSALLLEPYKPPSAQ
UniProt O95292: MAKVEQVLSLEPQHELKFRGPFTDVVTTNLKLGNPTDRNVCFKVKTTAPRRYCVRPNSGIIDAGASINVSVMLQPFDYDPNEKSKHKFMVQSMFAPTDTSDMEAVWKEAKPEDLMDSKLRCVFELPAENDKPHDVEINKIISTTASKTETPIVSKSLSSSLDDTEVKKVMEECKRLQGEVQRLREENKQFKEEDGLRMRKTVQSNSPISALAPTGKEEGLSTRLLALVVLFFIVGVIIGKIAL

Target: c-Myc–TRC40_(D74E), ATPase-impaired trap mutant of TRC40 (UniProt O43681)
Test: co-IP; c-Myc–TRC40 variants expressed in transfected HEK293 cells; precipitated with anti-c-Myc agarose from the cytosolic fraction (180,000 g, 1 h) in the absence of detergent; IP buffer 50 mM HEPES, 150 mM NaCl, 1.5 mM MgCl2, 1 mM EGTA, pH 7.4; 2.5 h; endogenous TA proteins detected by western blot

vesicle-associated membrane-protein-associated protein VAPB (from UniProt O95292 1-243)
binding: binds

nesprin SYNE1 (from UniProt Q8NF91 1-8797)
binding: no binding
